From ChEMBL document CHEMBL1961873, “Compounds: GSK PKIS; Assays: Nanosyn kinase panel” (2012)
Only a part is listed here, and it is no random draw.

Target: Protein kinase C gamma type (Homo sapiens) (UniProt P05129);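 note: each value is an averaged percent inhibition of the enzyme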
Settings: at 1 µM

Compound | inhibition
O=C1NC(=O)C(c2ccccc2)=C1Nc1ccccc1 | 12.2%
CC(C)(C)c1ccc(Oc2nccc(-c3c(-c4ccc(F)cc4)ncn3C3CCNCC3)n2)cc1 | 6.93%
Cc1cccc(Oc2nccc(-c3c(-c4ccc(F)cc4)ncn3C3CCNCC3)n2)c1C | 3.63%
Fc1ccc(-c2ncn(C3CCNCC3)c2-c2ccnc(Oc3cccc(C(F)(F)F)c3)n2)cc1 | 3.52%
Fc1ccc(-c2ncn(C3CCNCC3)c2-c2ccnc(Oc3cccc(F)c3)n2)cc1 | 7.29%
O=C1NC(=O)C(c2ccccc2Cl)=C1Nc1cc(Cl)c(O)c(Cl)c1 | 5.5%
CS(=O)(=O)c1ccc(Oc2nccc(-c3c(-c4ccc(F)cc4)ncn3C3CCNCC3)n2)cc1 | 2.93%
COc1ccccc1C1=C(Nc2ccccc2)C(=O)NC1=O | 3.89%
COc1ccccc1Oc1nccc(-c2c(-c3ccc(F)cc3)ncn2C2CCNCC2)n1 | 0.32%
NC(=O)CCc1ccccc1Oc1nccc(-c2c(-c3ccc(F)cc3)ncn2C2CCNCC2)n1 | 1.89%
Fc1ccc(Oc2nccc(-c3c(-c4ccc(F)cc4)ncn3C3CCNCC3)n2)cc1 | 2.24%
O=C1NC(=O)C(c2cccc([N+](=O)[O-])c2)=C1Nc1cc(Cl)c(O)c(Cl)c1 | 1.14%
Fc1ccc(-c2ncn(C3CCNCC3)c2-c2ccnc(Oc3ccc(Cl)cc3)n2)cc1 | 1.3%
O=C(O)c1ccc(Oc2nccc(-c3c(-c4ccc(F)cc4)ncn3C3CCNCC3)n2)cc1 | 1.91%

Target: T1, Protein kinase C iota type (Homo sapiens) (UniProt P41743)
T1 sequence (whole entry): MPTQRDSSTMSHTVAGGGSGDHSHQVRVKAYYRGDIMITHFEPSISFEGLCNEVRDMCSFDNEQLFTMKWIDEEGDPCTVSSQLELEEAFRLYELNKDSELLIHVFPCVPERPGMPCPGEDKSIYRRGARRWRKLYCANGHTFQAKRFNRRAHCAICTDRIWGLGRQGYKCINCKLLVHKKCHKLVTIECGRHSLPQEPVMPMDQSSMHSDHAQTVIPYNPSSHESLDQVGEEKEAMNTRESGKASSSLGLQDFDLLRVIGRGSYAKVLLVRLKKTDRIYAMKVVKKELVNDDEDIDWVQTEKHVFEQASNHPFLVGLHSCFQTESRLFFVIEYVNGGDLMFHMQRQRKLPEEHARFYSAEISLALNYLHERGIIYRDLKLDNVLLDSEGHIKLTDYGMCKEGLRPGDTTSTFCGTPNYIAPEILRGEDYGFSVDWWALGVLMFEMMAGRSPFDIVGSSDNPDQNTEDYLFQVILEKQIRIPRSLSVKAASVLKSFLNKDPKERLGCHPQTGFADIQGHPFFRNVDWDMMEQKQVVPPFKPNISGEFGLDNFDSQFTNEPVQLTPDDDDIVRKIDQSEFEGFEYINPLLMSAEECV
Settings: at 0.1 µM

Compound | inhibition
O=C1NC(=O)C(c2ccccc2)=C1Nc1ccccc1 | 2.73%
CC(C)(C)c1ccc(Oc2nccc(-c3c(-c4ccc(F)cc4)ncn3C3CCNCC3)n2)cc1 | 2.41%
Cc1cccc(Oc2nccc(-c3c(-c4ccc(F)cc4)ncn3C3CCNCC3)n2)c1C | 3.05%
Fc1ccc(-c2ncn(C3CCNCC3)c2-c2ccnc(Oc3cccc(C(F)(F)F)c3)n2)cc1 | 4.13%
Fc1ccc(-c2ncn(C3CCNCC3)c2-c2ccnc(Oc3cccc(F)c3)n2)cc1 | 2.67%
O=C1NC(=O)C(c2ccccc2Cl)=C1Nc1cc(Cl)c(O)c(Cl)c1 | 2.8%
CS(=O)(=O)c1ccc(Oc2nccc(-c3c(-c4ccc(F)cc4)ncn3C3CCNCC3)n2)cc1 | 2.14%
COc1ccccc1C1=C(Nc2ccccc2)C(=O)NC1=O | 1.03%
COc1ccccc1Oc1nccc(-c2c(-c3ccc(F)cc3)ncn2C2CCNCC2)n1 | 3.32%
NC(=O)CCc1ccccc1Oc1nccc(-c2c(-c3ccc(F)cc3)ncn2C2CCNCC2)n1 | -0.01%
Fc1ccc(Oc2nccc(-c3c(-c4ccc(F)cc4)ncn3C3CCNCC3)n2)cc1 | 1.16%
O=C1NC(=O)C(c2cccc([N+](=O)[O-])c2)=C1Nc1cc(Cl)c(O)c(Cl)c1 | -0.11%
Fc1ccc(-c2ncn(C3CCNCC3)c2-c2ccnc(Oc3ccc(Cl)cc3)n2)cc1 | 1.87%
O=C(O)c1ccc(Oc2nccc(-c3c(-c4ccc(F)cc4)ncn3C3CCNCC3)n2)cc1 | 1.53%

Target: T1, Protein kinase C iota type (Homo sapiens)
Settings: at 1 µM

Compound | inhibition
O=C1NC(=O)C(c2ccccc2)=C1Nc1ccccc1 | 2.63%
CC(C)(C)c1ccc(Oc2nccc(-c3c(-c4ccc(F)cc4)ncn3C3CCNCC3)n2)cc1 | 2.2%
Cc1cccc(Oc2nccc(-c3c(-c4ccc(F)cc4)ncn3C3CCNCC3)n2)c1C | 2.72%
Fc1ccc(-c2ncn(C3CCNCC3)c2-c2ccnc(Oc3cccc(C(F)(F)F)c3)n2)cc1 | 3.51%
Fc1ccc(-c2ncn(C3CCNCC3)c2-c2ccnc(Oc3cccc(F)c3)n2)cc1 | 2.89%
O=C1NC(=O)C(c2ccccc2Cl)=C1Nc1cc(Cl)c(O)c(Cl)c1 | 0.09%
CS(=O)(=O)c1ccc(Oc2nccc(-c3c(-c4ccc(F)cc4)ncn3C3CCNCC3)n2)cc1 | 1.77%
COc1ccccc1C1=C(Nc2ccccc2)C(=O)NC1=O | 0.39%
COc1ccccc1Oc1nccc(-c2c(-c3ccc(F)cc3)ncn2C2CCNCC2)n1 | 3.07%
NC(=O)CCc1ccccc1Oc1nccc(-c2c(-c3ccc(F)cc3)ncn2C2CCNCC2)n1 | 0.33%
Fc1ccc(Oc2nccc(-c3c(-c4ccc(F)cc4)ncn3C3CCNCC3)n2)cc1 | 1.53%
O=C1NC(=O)C(c2cccc([N+](=O)[O-])c2)=C1Nc1cc(Cl)c(O)c(Cl)c1 | -1.31%
Fc1ccc(-c2ncn(C3CCNCC3)c2-c2ccnc(Oc3ccc(Cl)cc3)n2)cc1 | 1.94%
O=C(O)c1ccc(Oc2nccc(-c3c(-c4ccc(F)cc4)ncn3C3CCNCC3)n2)cc1 | 2.01%

Target: Protein kinase C theta type (Homo sapiens) (UniProt Q04759);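 note: reported figure is the mean percent inhibition of PKC-theta, from the GSK PKIS screen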
Settings: at 0.1 µM

Sequence of UniProt Q04759 (Q04759 whole entry, looked up): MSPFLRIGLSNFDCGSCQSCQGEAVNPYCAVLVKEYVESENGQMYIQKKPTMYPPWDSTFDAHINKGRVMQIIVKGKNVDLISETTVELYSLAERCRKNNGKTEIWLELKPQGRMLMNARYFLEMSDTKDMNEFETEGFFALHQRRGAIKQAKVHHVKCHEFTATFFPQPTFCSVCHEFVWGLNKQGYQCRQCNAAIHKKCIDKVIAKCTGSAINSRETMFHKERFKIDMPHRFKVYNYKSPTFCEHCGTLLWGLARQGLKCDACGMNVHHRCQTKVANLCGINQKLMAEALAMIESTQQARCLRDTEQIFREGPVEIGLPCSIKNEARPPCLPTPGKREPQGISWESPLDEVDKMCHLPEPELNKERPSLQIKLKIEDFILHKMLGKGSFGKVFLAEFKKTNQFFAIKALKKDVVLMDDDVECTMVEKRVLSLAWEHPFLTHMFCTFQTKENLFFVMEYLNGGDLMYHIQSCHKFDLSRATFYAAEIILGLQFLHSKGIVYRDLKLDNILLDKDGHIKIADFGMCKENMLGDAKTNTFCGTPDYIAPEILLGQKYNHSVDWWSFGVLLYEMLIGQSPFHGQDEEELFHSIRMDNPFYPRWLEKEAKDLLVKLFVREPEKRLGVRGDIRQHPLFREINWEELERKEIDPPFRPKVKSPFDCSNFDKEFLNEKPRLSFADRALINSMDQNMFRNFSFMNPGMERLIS

Compound | inhibition
O=C1NC(=O)C(c2ccccc2)=C1Nc1ccccc1 | 4.77%
CC(C)(C)c1ccc(Oc2nccc(-c3c(-c4ccc(F)cc4)ncn3C3CCNCC3)n2)cc1 | 1.98%
Cc1cccc(Oc2nccc(-c3c(-c4ccc(F)cc4)ncn3C3CCNCC3)n2)c1C | 2.35%
Fc1ccc(-c2ncn(C3CCNCC3)c2-c2ccnc(Oc3cccc(C(F)(F)F)c3)n2)cc1 | 2.88%
Fc1ccc(-c2ncn(C3CCNCC3)c2-c2ccnc(Oc3cccc(F)c3)n2)cc1 | 3.01%
O=C1NC(=O)C(c2ccccc2Cl)=C1Nc1cc(Cl)c(O)c(Cl)c1 | 2.67%
CS(=O)(=O)c1ccc(Oc2nccc(-c3c(-c4ccc(F)cc4)ncn3C3CCNCC3)n2)cc1 | 2.46%
COc1ccccc1C1=C(Nc2ccccc2)C(=O)NC1=O | 2.01%
COc1ccccc1Oc1nccc(-c2c(-c3ccc(F)cc3)ncn2C2CCNCC2)n1 | 3.73%
NC(=O)CCc1ccccc1Oc1nccc(-c2c(-c3ccc(F)cc3)ncn2C2CCNCC2)n1 | -0.31%
Fc1ccc(Oc2nccc(-c3c(-c4ccc(F)cc4)ncn3C3CCNCC3)n2)cc1 | 2.43%
O=C1NC(=O)C(c2cccc([N+](=O)[O-])c2)=C1Nc1cc(Cl)c(O)c(Cl)c1 | 0.09%
Fc1ccc(-c2ncn(C3CCNCC3)c2-c2ccnc(Oc3ccc(Cl)cc3)n2)cc1 | 0.79%
O=C(O)c1ccc(Oc2nccc(-c3c(-c4ccc(F)cc4)ncn3C3CCNCC3)n2)cc1 | 2.88%
